Laboratory results taken from the supplement of paper PMC3334620.
Whole data set: some 33,000 sequences, median “E-score (-0.5 to 0.5)” near -0.04, cut for the highest 2% near 0.36. Some of the results follow.

target: T1, Hmlalpha2 (UniProt P0CY09); assay: PBM E-score (8-mer binding enrichment) (E-score (-0.5 to 0.5)); higher = stronger / more preferred TF binding; most listed sequences are background and not binding sites; conditions: protein concentration: 200 nM; construct: GST-full length
T1 sequence: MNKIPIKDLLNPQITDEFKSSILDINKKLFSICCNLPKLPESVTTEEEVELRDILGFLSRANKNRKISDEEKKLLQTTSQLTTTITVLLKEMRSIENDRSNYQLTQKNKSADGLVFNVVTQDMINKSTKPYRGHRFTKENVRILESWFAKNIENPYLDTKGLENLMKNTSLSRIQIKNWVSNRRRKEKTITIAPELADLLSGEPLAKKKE
Procedure: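 Universal 'all 10-mer' protein binding microarrays (Agilent AMADID 015681) probed with GST-tagged S. cerevisiae TFs (full-length or DBD) made by in vitro transcription/translation (PURExpress), about 100-200 nM. Bound TF was detected with fluorescent anti-GST. Each ungapped 8-mer (which stands for itself and its reverse complement) is scored by the PBM enrichment score (E-score), a modified Wilcoxon-Mann-Whitney statistic from -0.5 to +0.5, computed with the Universal PBM Analysis Suite. Scale: above 0.35 generally sequence-specific binding.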

Sequence	PBM E-score
AGAACATA	0.248
ATCATACG	0.203
AAGGAACG	-0.0584
AACACCTG	0.193
ATACTGAA	0.0957
AGCCGCCG	-0.309
GGCCTAAC	0.0427
CAACTGCC	-0.0614
GCTAGGGA	-0.305
ATCCACCC	-0.258
ACCTGGCG	0.0619
TCAGTGAA	-0.0967
CCATGATC	-0.128
AGGGAACG	-0.224
AACCTATT	-0.12
ACTGATTG	-0.0737
CCCTAAGA	-0.201
CCAAGACC	-0.287
CTTTTTCA	0.0426
AGATATAA	0.127
ATCGTTCA	0.0127
CTAAAGAC	0.051
AGCTATAA	0.0724
CGGGGAAG	-0.189
ACGTGAAG	0.117

Sequence	PBM E-score
ATGAGCAC	-0.067
CCACGTAC	0.0262
CAGCGAGA	-0.0719
AAAAATCC	-0.17
GATCCAGC	-0.303
AAAGAAAC	0.211
ATTCTGGC	-0.13
CTCAAATC	-0.153
CCACGGCC	-0.281
AACCAAAG	0.105
ACTGGCCC	-0.194
AATGTGGG	-0.134
CCGGGGTA	-0.17
CCAGGGGG	-0.372
GCGAACAA	0.193
GCGTCTCA	-0.153
AACAGGGC	0.126
AAGAGACA	-0.0706
ACCGCCCA	-0.1
ACCTACTA	0.081
TTACCGAA	0.0996
ATAGGATC	-0.15
ATTATGCG	0.0664
TGATATCA	0.114
GCTTACCA	0.121

Sequence	PBM E-score
CTATCACA	0.063
ACTGTGAG	-0.0534
AGCATTCC	-0.0993
CAAACCTA	0.123
CAACATAG	0.286
CTTTTTTA	0.143
AATCAGTA	0.14
GCGATGTA	0.366
AATGCTTC	0.043
ACCTCTGC	-0.204
GGACGTGA	-0.136
AGTCTGTG	-0.0941
AGTACCAG	-0.00021
GAGTAAAC	0.186
ATTACGTA	0.431
AGCTCGGG	-0.135
GTTAGAAC	0.15
TCAACCAA	0.124
AATGAGAC	-0.281
TGATGTAA	0.389
ACCTTGAT	-0.0635
GTGGTTCA	0.0692
CACTACAC	0.394
TAACCGGA	-0.0408
CTTTGGCC	-0.0664

Sequence	PBM E-score
CGTTTGGA	-0.163
CGGGCATA	-0.237
AAGCTGCG	-0.00352
GGTGTCCA	-0.143
ACTGAAAG	-0.00652
CCAGCGTA	0.0228
CCCTTGGA	-0.119
GCGTTTCA	0.07
CGTTACAC	0.385
ATTACACC	0.382
CTACGCAC	0.17
CTACTTAC	0.0584
CATCTGAC	-0.162
GGTGGGAC	-0.192
AACAATTA	0.204
GCCGAACC	-0.38
AATTCTGT	-0.0762
AACTATCC	-0.331
AGCTATGC	-0.036
CAATGGCA	-0.0583
CACATAGC	0.143
CCTACCCG	-0.051
GAGTAGTA	0.0394
CCAGTACC	-0.192
AGCCGGGG	-0.3

Sequence	PBM E-score
ATGGCGCA	-0.0727
CGATCGAA	-0.113
AATCCGCG	0.077
ACTATTTA	0.165
TATTTGCA	0.233
TGTCCACA	0.119
GGAGCCGA	-0.213
CCCAGTTC	0.0115
AAGTATTG	0.0978
GTGTTTGA	0.307
ACACTGAT	-0.098
AGTATTCC	0.0138
GCTCCGAA	-0.111
CAGCACTA	-0.0651
AATCTTCA	0.0756
CGACCCAC	-0.132
AGGAAGCC	-0.247
GAACGGAC	-0.135
AAGCATTG	0.0469
AACAAGTG	0.276
AAGGGTAC	-0.00026
AGCCTTAA	-0.107
AGGAGATC	-0.167
GTGGAGCA	-0.0957
CCGAGGTA	-0.101

Sequence	PBM E-score
GGCATCCA	-0.215
GAATTCAA	0.0639
GGTTAGCA	-0.0838
AAAAATGC	-0.0342
GAAGCTTC	-0.459
CTTGCCGC	-0.175
CTATTCGA	-0.0276
AGATGCAC	-0.126
CAAAGTCA	-0.0618
CTAATTAA	0.178
AACAATAT	0.341
ACAAACCC	0.0827
CACCGGAG	-0.345
AGGGGAGC	-0.33
GGACGGCC	-0.251
TACGCCCA	-0.05
CATCCTTC	0.0706
CGGTATAG	-0.232
CTTAATGC	-0.0376
AAACAATT	0.0562
AAACGGTG	0.0442
CATACAAC	0.093
CCCCTCAG	-0.321
AACCTGGA	-0.0997
CTCCTACA	0.114

Sequence	PBM E-score
CCGGATTC	-0.0975
AACCACTT	-0.037
AGCTTCCC	-0.335
TGCTACAA	0.218
AAGTCTAA	0.0293
CAATTTAG	0.0321
TCTCATAA	-0.0311
TGTAGAAA	0.429
TAGGTAAA	0.189
CGGGTCGC	0.0563
ATGCTCAC	-0.0507
CCTTCGCC	-0.202
ACATCTCC	0.036
ATTCGCGG	-0.0108
ATGTCCCA	-0.311
GGATGCTA	-0.152
ATTCCAAG	-0.078
TAAGTGCA	0.0149
ATGTGGTC	-0.0423
AATCATAA	0.0911
CCGCTACC	-0.158
GATAGGGA	-0.236
